Measured values published in the RNAGym collection of RNA variant scans (doi:10.7554/elife.90254).
The source gives no read counts; variants with many changes may rest on few reads.

B1: LINE1-mini (parent)
chain: GGCAGAGCUCAACACAGCGUGGCAAAGUGGCUGUGGCUAGACUGCC

Variants of: B1
Assay: self-cleavage, relative activity (ratio to wild type); higher = more cleavage; in vitro, sequencing; the parent is a self-cleaving ribozyme

Variant | self-cleavage
G33U U38C A41G | 0.02
A16G G22U A41G | 0
A6G U20G C37A A39C | 0.03
G7U U9A G17C C45U | 0.12
A4C C13A C23A G33C | 0.04
G2A C37G C45U | 0.05
C3A A11U A26C | 0.12
G2U U32G G35U | 0.03
G1A U9A C18G A24G U28A G35U C42U | 0.2
A24C G33U A39G | 0.07
A6C G19A G44C | 0.16
G7U G17C U38A C42U | 0.01
C18U G19U A24C | 0.08
G1U G27U G40U | 0.04
A11C U20A C42A | 0
A16U G19A U20C U32A U38A U43A | 0.01
A4G C37U C46A | 0.04
G7U C10U C13A U34A G40C C45U | 0.07
A25U G29A G35C C37U C45G C46U | 0.01
C8A C15A G29U | 0.17
U20C G21C A25G G33U | 0.26

Variant | self-cleavage
C15G G29U G30A G35A | 0.02
G19U G27U U38A A41G | 0.34
G2C C3A G27U U28A | 0.7
A4G U9C C23G G29U | 0.59
A11U G21U A39U | 0.16
U9A U32A C42G | 0.16
A4C C8G G36A G40U | 0.2
C37A C42G G44A | 0.03
C3U A4C G17U A39C | 0.05
G2U U9A A16U | 0.06
C10U U20C C45G | 0.01
G5A C13G C37A U38A | 0.1
A16U A25C G29U C37G | 0.06
G19C G30C U32G | 0.11
A11G G19C U28A C37U A39C G44U | 0.01
A4G A14G U34A | 0.06
A11U U34C C42G | 0.02
G2U A12C G17A G22C | 0.01
G1A U20G G22C A24U G29C C37A | 0.02
G17C A26C G30A C45G | 1.4
A25C G40A U43G | 0.01

Variant | self-cleavage
C8G A12U C42G | 0.07
G1U U9C U28G | 0.01
G5C A11G G27U | 0.03
G5A A12C A24C C37G | 0.02
G1C C3G C18A G36U | 0.08
A24G C37U C42A | 0.09
G27U G33U A39U | 0.03
A11G C15A C31G | 0.04
G2A A14U G19A | 0.1
C10A A26U U28C C37U | 0.01
G5A G17U C42U | 0.1
U9C C13G C31A | 0.02
C3U G5C A11U A39U G40C | 0.11
G17U G22A A41U C46A | 0.09
G2C G5C C18U A24U C31G | 0.03
G1A C18U A25U A39G | 0.07
A11C C15G C18G C23G U28G U32C | 0
C3A G7C C8U A26G G33U C37A U43A | 0.46
A14G G21A G35U U43A | 0
A11U C13U A14U G19A | 0.01
G1A C18U C23G G27U G33A C45U | 0.01

Variant | self-cleavage
C18U G19A G21U U28C | 0.85
C10A C13U U34A G36A | 0.04
A6U U32G C37U | 0.03
G29U G30A G35A | 0.2
C13G G21C G22A G29A U43G | 0.37
C8A A11U C15U C31U U43A | 0.02
A12G C18U U28A | 0.06
C8U A16G C42G U43A | 0.04
G5A G27U C37A | 0.65
C3G G17U C18A A41C | 0.05
G2U A26C G29U C31G | 0.03
C8G G21C U28C U32C | 0.03
C15G G29U U38G A39U | 0.02
C18G A25U G36U | 0.01
G21U G22C C37G G40U C46G | 0.08
G2A A11G G22U U28C C37G C46U | 0
G2C U20C A24C G35C | 0.02
C13A G35U U43G C46A | 0.05
G7C C15G A16U C23A | 0.02
U9G C13U C23G A41G C45G | 0.03
C13U A25G C42U | 0.09
